Measurements reported in article PMC10300122.
Results are given in words; binding and its absence hold for the method and conditions named. Binding seen in cells or lysates may run through a third protein. Some binding calls cover weakened binding; strength is not graded here. For part of these data: Tags and fused reporters may be left off the sequences shown. Blank lines part the entries; values can stand above or below the binder they belong to.

How the values were obtained:
ALKBH5-HA = ALKBH5-HA (UniProt Q6P6C2); experiment: co-IP; ALKBH5-HA and HDAC7-FLAG cotransfected into HeLa cells; precipitated with anti-FLAG (Fig. 3b) or anti-HA (Fig. 3c); western blot
[1] = target: ALKBH5 (in untransfected HeLa cells) (human (endogenous in HeLa)) (UniProt Q6P6C2); experiment: co-IP; HeLa cells serum starved (0% FBS) for different times, or stimulated with 10% FBS after 2 days of serum deprivation; who was precipitated is not told
ALKBH5-FLAG 70-75 Del = target: T1, ALKBH5-FLAG 70-75 Del (UniProt Q6P6C2); experiment: co-IP; ALKBH5-FLAG mutants transfected into ALKBH5 KO HeLa cells; precipitated with anti-FLAG; endogenous PSPC1 detected
T1 sequence: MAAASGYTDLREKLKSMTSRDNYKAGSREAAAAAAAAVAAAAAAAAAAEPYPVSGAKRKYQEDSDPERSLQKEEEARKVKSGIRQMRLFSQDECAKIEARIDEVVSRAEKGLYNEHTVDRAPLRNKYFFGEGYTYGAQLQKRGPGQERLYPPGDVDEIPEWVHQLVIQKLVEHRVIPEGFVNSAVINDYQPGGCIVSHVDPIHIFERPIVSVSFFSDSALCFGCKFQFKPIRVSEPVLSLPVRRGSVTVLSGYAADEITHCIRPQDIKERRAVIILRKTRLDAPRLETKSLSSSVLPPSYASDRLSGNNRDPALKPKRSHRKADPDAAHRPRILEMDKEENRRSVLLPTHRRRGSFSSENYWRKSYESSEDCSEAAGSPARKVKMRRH

ALKBH5-FLAG K235Q = ALKBH5-FLAG K235Q (UniProt Q6P6C2); experiment: co-IP; ALKBH5 KO HeLa cells stably re-expressing ALKBH5-FLAG wild type, K235R or K235Q; precipitated with anti-FLAG (Fig. 6c) or anti-PSPC1 (Fig. 6d); western blot of endogenous PSPC1, NONO, SFPQ
wild-type ALKBH5-FLAG = wild-type ALKBH5-FLAG (UniProt Q6P6C2); experiment: as above
[2] = target: T2, endogenous PSPC1 (human (endogenous in HeLa)) (UniProt Q8WXF1); experiment: as above
T2 sequence: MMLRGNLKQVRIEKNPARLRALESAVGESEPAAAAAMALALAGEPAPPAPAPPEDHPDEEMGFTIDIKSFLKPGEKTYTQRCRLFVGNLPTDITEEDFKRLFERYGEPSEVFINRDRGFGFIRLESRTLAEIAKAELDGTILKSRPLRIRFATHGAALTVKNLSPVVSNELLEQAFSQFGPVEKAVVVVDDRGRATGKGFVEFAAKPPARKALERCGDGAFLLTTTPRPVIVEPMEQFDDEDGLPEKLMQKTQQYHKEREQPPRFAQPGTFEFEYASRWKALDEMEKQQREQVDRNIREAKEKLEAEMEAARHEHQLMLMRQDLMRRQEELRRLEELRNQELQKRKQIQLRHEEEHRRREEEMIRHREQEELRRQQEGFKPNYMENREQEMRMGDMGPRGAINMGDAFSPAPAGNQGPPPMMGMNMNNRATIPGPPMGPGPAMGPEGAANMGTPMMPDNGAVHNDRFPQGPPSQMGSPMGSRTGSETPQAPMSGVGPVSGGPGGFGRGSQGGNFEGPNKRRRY

ALKBH5-FLAG K235R = ALKBH5-FLAG K235R (UniProt Q6P6C2); experiment: as above

binding (ALKBH5-HA): binds
B1: HDAC7-FLAG (enzyme, UniProt Q8WUI4 1-952)
chain: MDLRVGQRPPVEPPPEPTLLALQRPQRLHHHLFLAGLQQQRSVEPMRLSMDTPMPELQVGPQEQELRQLLHKDKSKRSAVASSVVKQKLAEVILKKQQAALERTVHPNSPGIPYRTLEPLETEGATRSMLSSFLPPVPSLPSDPPEHFPLRKTVSEPNLKLRYKPKKSLERRKNPLLRKESAPPSLRRRPAETLGDSSPSSSSTPASGCSSPNDSEHGPNPILGSEALLGQRLRLQETSVAPFALPTVSLLPAITLGLPAPARADSDRRTHPTLGPRGPILGSPHTPLFLPHGLEPEAGGTLPSRLQPILLLDPSGSHAPLLTVPGLGPLPFHFAQSLMTTERLSGSGLHWPLSRTRSEPLPPSATAPPPPGPMQPRLEQLKTHVQVIKRSAKPSEKPRLRQIPSAEDLETDGGGPGQVVDDGLEHRELGHGQPEARGPAPLQQHPQVLLWEQQRLAGRLPRGSTGDTVLLPLAQGGHRPLSRAQSSPAAPASLSAPEPASQARVLSSSETPARTLPFTTGLIYDSVMLKHQCSCGDNSRHPEHAGRIQSIWSRLQERGLRSQCECLRGRKASLEELQSVHSERHVLLYGTNPLSRLKLDNGKLAGLLAQRMFVMLPCGGVGVDTDTIWNELHSSNAARWAAGSVTDLAFKVASRELKNGFAVVRPPGHHADHSTAMGFCFFNSVAIACRQLQQQSKASKILIVDWDVHHGNGTQQTFYQDPSVLYISLHRHDDGNFFPGSGAVDEVGAGSGEGFNVNVAWAGGLDPPMGDPEYLAAFRIVVMPIAREFSPDLVLVSAGFDAAEGHPAPLGGYHVSAKCFGYMTQQLMNLAGGAVVLALEGGHDLTAICDASEACVAALLGNRVDPLSEEGWKQKPNLNAIRSLEAVIRVHSKYWGCMQRLASCPDSWVPRVPGADKEEVEAVTALASLSVGILAEDRPSEQLVEEEEPMNL

binding [1]: binds
binding (ALKBH5-FLAG 70-75 Del): no binding
binding (ALKBH5-FLAG K235Q): binds
binding (wild-type ALKBH5-FLAG): binds
B2: endogenous PSPC1 (protein, UniProt Q8WXF1 1-523)
chain: T2 sequence

binding (ALKBH5-FLAG K235Q): no binding
binding [2]: binds
binding (wild-type ALKBH5-FLAG): no binding
binding (ALKBH5-FLAG K235R): no binding
B3: endogenous NONO (protein, UniProt Q15233 1-471)
chain: MQSNKTFNLEKQNHTPRKHHQHHHQQQHHQQQQQQPPPPPIPANGQQASSQNEGLTIDLKNFRKPGEKTFTQRSRLFVGNLPPDITEEEMRKLFEKYGKAGEVFIHKDKGFGFIRLETRTLAEIAKVELDNMPLRGKQLRVRFACHSASLTVRNLPQYVSNELLEEAFSVFGQVERAVVIVDDRGRPSGKGIVEFSGKPAARKALDRCSEGSFLLTTFPRPVTVEPMDQLDDEEGLPEKLVIKNQQFHKEREQPPRFAQPGSFEYEYAMRWKALIEMEKQQQDQVDRNIKEAREKLEMEMEAARHEHQVMLMRQDLMRRQEELRRMEELHNQEVQKRKQLELRQEEERRRREEEMRRQQEEMMRRQQEGFKGTFPDAREQEIRMGQMAMGGAMGINNRGAMPPAPVPAGTPAPPGPATMMPDGTLGLTPPTTERFGQAATMEGIGAIGGTPPAFNRAAPGAEFAPNKRRRY
